# According to PubChem BioAssay AID624417 (National Center for Advancing Translational Sciences (NCATS), 2012):
# Several values for one entry are separate records, joined by “and”; a condition that tells them apart may be missing. Equal values may be shown once. The campaign covered roughly 410,000 compounds. About 6,400 (1.6%) were called active. Inconclusive results, whose numbers are uncertain, are shown with a selection of clear calls. Calls follow the shape of the dose curve; as a rule, active = well fitted inhibition curve with a large enough effect; inconclusive = small, poorly fitted or top-dose-only effect; inactive = no such curve, though single readings can be large or run the other way. Potencies beside an inconclusive call are fits to weak or partial responses and may not hold up.
# Biological target: Glucagon-like peptide 1 receptor (Homo sapiens) (UniProt P43220)
# Chain of UniProt P43220 (P43220 whole entry, looked up): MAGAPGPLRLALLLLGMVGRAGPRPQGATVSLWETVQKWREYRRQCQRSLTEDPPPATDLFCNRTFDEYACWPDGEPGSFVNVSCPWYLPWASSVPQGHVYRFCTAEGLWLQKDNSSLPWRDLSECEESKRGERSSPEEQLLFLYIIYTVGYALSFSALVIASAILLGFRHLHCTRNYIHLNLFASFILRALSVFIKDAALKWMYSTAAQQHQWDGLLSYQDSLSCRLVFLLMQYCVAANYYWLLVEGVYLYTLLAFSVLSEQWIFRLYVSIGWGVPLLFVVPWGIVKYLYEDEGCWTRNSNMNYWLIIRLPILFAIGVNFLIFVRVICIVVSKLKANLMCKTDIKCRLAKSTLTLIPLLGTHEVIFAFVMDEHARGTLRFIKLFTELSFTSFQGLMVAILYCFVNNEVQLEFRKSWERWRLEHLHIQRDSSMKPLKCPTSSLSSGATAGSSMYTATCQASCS
# Test: qHTS of GLP-1 Receptor Inverse Agonists (Inhibition Mode); also: nearly all actives have a fitted effect of over 55% in size
# Conditions: HEK293 GLP-1R CRE-luciferase, luminescence, 24 h, GLP-1R form is constitutively active; activity change, negative = inhibition: at 38.3 µM (top of the series) unless noted
# How it was run: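 Assay principle: reduced luminescence from a cAMP-responsive reporter in HEK293 cells co-expressing a constitutively active GLP-1R. Conditions: 24 hr compound incubation, 37 deg C, 5% CO2.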
# % is scaled to controls: 0 for no effect and ±100 for the full control effect; potency is read from the fitted curve at half-maximal effect; tags tell the direction and shape of the fitted curve.
Compound,Potency,"activity change, negative = inhibition"
COc1ccc2c(c1)OC[C@H]1[C@H]2N2C(=O)c3cc(Br)ccc3NC(=O)[C@@]2(C)[C@H]1c1ccccc1,"inconclusive: 8.91 µM [inhibitor, partial curve, poor fit]",–
CC(C)N(C(=O)COC(=O)c1cccc(S(=O)(=O)N2CC3(C)CC2CC(C)(C)C3)c1)C(C)C (stereo unspecified),"inconclusive: 7.94 µM [inhibitor, partial curve, poor fit]",–
CCOc1ccc(C(=O)NCC(=O)NNC(=O)CN(C)S(=O)(=O)c2ccc(Cl)cc2)cc1OCC,"inconclusive: 3.16 µM [inhibitor, full curve, poor fit]",–
Cc1ccc(C)c(NC(=O)CCC(=O)N/N=C/c2cc([N+](=O)[O-])ccc2O)c1,"inconclusive: 11.2 µM [inhibitor, single point]",–
COc1cccc(C(=O)NCCc2csc(-c3ccc(Cl)cc3)n2)c1,"inconclusive: 10 µM [inhibitor, partial curve, poor fit]",–
CCOC(=O)C1CCN(S(=O)(=O)c2ccc3[nH]c4c(c3c2)CCCC4)CC1,"inconclusive: 10 µM [inhibitor, partial curve, poor fit]",–
O=C(N=Nc1c(O)[nH]c2ccc(F)cc12)C1COc2ccccc2O1 (stereo unspecified),–,inactive: 5.23%
O=C(c1ccco1)N1CCN(C(=S)Nc2ccc(F)c(Cl)c2)CC1,"inconclusive: 12.6 µM [inhibitor, partial curve, poor fit]",–
Cc1cc(Nc2ccccc2)nc(-c2ccccc2O)n1,"inconclusive: 10 µM [inhibitor, partial curve, poor fit]",–
CCCOc1c(OC)cccc1C1CC(=O)Nc2cc(OC)c(OC)c(OC)c21 (stereo unspecified),"inconclusive: 2.51 µM [inhibitor, full curve]",–
CCc1nc2ccc(C(=O)NCCOc3ccc(OC)cc3)cn2c1N(C)CCCc1ccccc1,"inconclusive: 7.94 µM [inhibitor, partial curve]",–
O=C(C1CCCN(Cc2ccccc2)C1)N1CCCCC1 (stereo unspecified),"inconclusive: 3.55 µM [inhibitor, full curve, poor fit]",–
CCN1CCN(C(=S)c2ccc(Br)cc2)CC1,–,inactive: 0%
CCCC(=O)N(CCc1ccccc1)Cc1nc2ccccc2c(=O)[nH]1,"inconclusive: 7.94 µM [inhibitor, partial curve, poor fit]",–
CCn1c(SCC#N)nc2c(c1=O)C1(CCCC1)Cc1ccccc1-2,"inconclusive: 10 µM [inhibitor, partial curve, poor fit]",–
CCc1ccc(CNC(=O)C(C)n2ccc3cc(S(=O)(=O)N4CCCCCC4)ccc32)cc1 (stereo unspecified),active: 10 µM,–
CC1=C(C(=O)N(C)C)CC(CC(=O)NC2CCCCC2)C(=O)N1Cc1ccc(C(C)(C)C)cc1 (stereo unspecified),"inconclusive: 28.2 µM [inhibitor, single point]",–
Nc1cc(-c2cccc(Br)c2)nn1Cc1ccccc1,"inconclusive: 31.6 µM [inhibitor, single point]",–
CCC1CCc2sc(C(=O)N3CCN(c4ccccn4)CC3)cc2C1 (stereo unspecified),"inconclusive: 28.2 µM [inhibitor, single point]",–
CCc1cccc(C)c1NC(=O)Cn1cnc2c1c(=O)n(C)c(=O)n2C,–,inactive: -9.99%
CC1=CC(=O)N(c2cccc(C(F)(F)F)c2)C1c1ccc(Cl)cc1 (stereo unspecified),"inconclusive: 4.47 µM [inhibitor, full curve]",–

Compound,Potency,"activity change, negative = inhibition"
CCOC(=O)C1CCN(C(c2ccc(SC)cc2)c2c(O)cc(C)n(Cc3ccco3)c2=O)CC1 (stereo unspecified),–,inactive: -25.2%
CC(=O)N1CCc2cc(NC(=O)C3(C)CCN3CCc3ccccc3)ccc21 (stereo unspecified),"inconclusive: 4.47 µM [inhibitor, single point]",–
CCCCN1CC(COCc2ccccc2)Oc2ccccc2S1(=O)=O (stereo unspecified),active: 11.2 µM,–
Cc1sc2nc(C(C)C)nc(SCC(=O)N3CCN(C(=O)c4ccco4)CC3)c2c1C,–,inactive: -9.09%
CSCCC(NC(=O)COc1ccccc1)C(=O)OCCOc1ccc(Br)cc1 (stereo unspecified),"inconclusive: 11.2 µM [inhibitor, partial curve, poor fit]",–
CC(C)c1nnc(NC(=O)CCC(=O)N2CCN(c3ccccn3)CC2)s1,–,inactive: 2.87%
COC(=O)[C@@]12C[C@@H](CC(=O)N3CCN(C(=O)c4ccco4)CC3)C(=O)N(Cc3cccc4ccccc34)C1=CCC(C)(C)C2,"inconclusive: 28.2 µM [inhibitor, single point]",–
CCC1S/C(=N/N=C/c2ccco2)N(Cc2ccccc2)C1=O (stereo unspecified),"inconclusive: 11.2 µM [inhibitor, partial curve]",–
CCc1cccc(CC)c1NC(=O)C(NS(=O)(=O)c1cccs1)c1ccccc1 (stereo unspecified),"inconclusive: 31.6 µM [inhibitor, single point]",–
CCc1cc(Br)ccc1NC(=S)NCCc1ccccc1,"inconclusive: 10 µM [inhibitor, partial curve, poor fit]",–
COc1ccc(-c2cc(C)no2)cc1S(=O)(=O)Nc1c(C)cc(C)cc1C,"inconclusive: 11.2 µM [inhibitor, partial curve]",–
Cc1ccc(Cn2c(CNS(=O)(=O)c3cccc([N+](=O)[O-])c3)nc3cccnc32)cc1,"inconclusive: 12.6 µM [inhibitor, single point]",–
Cc1ccc(NC(=S)/N=C(\N)Nc2nc(C)c3cc(C)ccc3n2)c(C)c1,"inconclusive: 28.2 µM [inhibitor, single point]",–
CC(C)(C(=O)N1CCC1(C)C(=O)NC1Cc2ccccc2C1)c1ccccc1 (stereo unspecified),"inconclusive: 20 µM [inhibitor, single point]",–
N/N=C(\c1ccccc1)c1cc(Br)ccc1N,"inconclusive: 12.6 µM [inhibitor, single point]",–
COc1ccc(F)cc1-c1cc(C(=O)NCc2ccc(C(F)(F)F)cc2)[nH]n1,"inconclusive: 22.4 µM [inhibitor, single point]",–
COc1cccc(C(=O)NC2CC3CCCC(C2)N3Cc2ccc(F)cc2)c1 (stereo unspecified),–,inactive: -9.54%
CCn1cc(C(=O)OCC(=O)OC2CC(C)CCC2C(C)C)c(=O)c2ccc(C)nc21 (stereo unspecified),"inconclusive: 28.2 µM [inhibitor, single point]",–
COc1ccc(C(=O)NCCn2cc(SCC(=O)Nc3ccc(C)cc3)c3ccccc32)cc1,"inconclusive: 12.6 µM [inhibitor, partial curve, poor fit]",–
Cc1ccc(CNC(=O)NCc2noc3ccc(C)cc23)cc1,–,inactive: -4.56%
CC(=O)Nc1nc(-c2ccc3c(c2)CC(C)N3C(=O)C2CC2)c(C)s1 (stereo unspecified),"inconclusive: 1.78 µM [inhibitor, full curve, poor fit]",–

Compound,Potency,"activity change, negative = inhibition"
c1ccc(-c2cn3c(n2)-c2ccccc2C3)cc1,"inconclusive: 11.2 µM [inhibitor, single point]",–
CCC(C)(C)NC(=O)c1ccc2c(c1)N(CC(=O)NC1CCCC1)C(=O)C(C)(C)O2,–,inactive: 8.5%
CC(C)CC(COCc1cccc(Cl)c1)N1CCN(C(=O)c2cccc(C(F)(F)F)c2)CCC1=O (stereo unspecified),"inconclusive: 12.6 µM [inhibitor, partial curve, poor fit]",–
CCN1CCN(c2ncc(C(=O)Nc3ccccc3C(=O)OC)c3ccccc23)CC1,"inconclusive: 11.2 µM [inhibitor, partial curve, poor fit]",–
Cc1ccc(C)c(S(=O)(=O)c2cn(C)c3cc(N4CCCCC4C)c(F)cc3c2=O)c1 (stereo unspecified),"inconclusive: 22.4 µM [inhibitor, single point]",–
COc1ccc(OC)c(NCc2cccn2-c2nnc(N3CCCCC3)s2)c1,"inconclusive: 5.62 µM [inhibitor, full curve, poor fit]",–
O=C(OCc1c(F)cccc1Cl)c1cnccn1,–,inactive: 2.21%
CCC(=O)c1ccc(O)c(CC=C(C)C)c1,"inconclusive: 14.1 µM [inhibitor, single point]",–
CCN(CC)S(=O)(=O)c1cc(NS(=O)(=O)c2cc(Cl)ccc2Cl)ccc1C,"inconclusive: 0.891 µM [inhibitor, full curve, poor fit]",–
C(/C=C/c1ccccc1)=N/N1CCN(c2ccccc2)CC1,–,inactive: 0%
CC1(C(=O)NS(=O)(=O)c2cccc(F)c2)CCN1C(=O)CC1CCCCC1 (stereo unspecified),–,inactive: 24.9%
Cc1ccc(NC(=O)C(Cc2ccccc2)n2cccc2)cc1 (stereo unspecified),"inconclusive: 28.2 µM [inhibitor, single point] and inconclusive: 5.62 µM [inhibitor, full curve, poor fit]",–
Cc1cccc(NC(=O)Cc2ccc(Br)cc2)n1,"inconclusive: 12.6 µM [inhibitor, single point]",–
O=C(NCCc1ccco1)C(=O)NCC1CCCN1S(=O)(=O)c1ccccc1 (stereo unspecified),"inconclusive: 22.4 µM [inhibitor, partial curve, poor fit]",–
COc1ccccc1OCCCSc1nc(-c2ccc(C(C)(C)C)cc2)nc2cc(=O)[nH]n12,"inconclusive: 28.2 µM [inhibitor, single point]",–
COc1ccccc1CNC(=O)C1CCCN(C(=O)c2cnn(-c3ccc(F)cc3)c2-n2cccc2)C1 (stereo unspecified),"inconclusive: 12.6 µM [inhibitor, single point]",–
COC(=O)c1c(NC(=O)COc2ccc(Cl)cc2)sc2c1CC(C)(C)NC2(C)C,"inconclusive: 3.16 µM [inhibitor, full curve, poor fit]",–
O=C(Nc1cc(S(=O)(=O)N2CCCCC2)ccc1Oc1ccccc1)C1=COCCO1,"inconclusive: 28.2 µM [inhibitor, single point]",–
COc1ccc(CNC(=O)c2cccc(NC(=O)c3ccccc3)c2)cc1,"inconclusive: 10 µM [inhibitor, partial curve, poor fit]",–
